Test results: publication PMC12136788
The list shows a part of the results.

B1: chr7:141438946:141438947:+_ENSG00000106028_ENST00000265304|hu_mus|hu_hu_hu_mus_True|38_108 (ssRNA)
RNA: GGGAGUUCUACAGUCCGACGAUCGACUACCUGUAAUUAACACAGGUCUUCGAAACAUGGCUUCUGUUUUUCUUACAACCUAAUCUUUAGGCUUUUCCUGACGAUCUGAAAGAAAAGAGAAAAAUGAUAAAUCAAGAAACUACACAACAGAGGAUUGAGCAUCA
B2: chr1:17371331:17371332:-_ENSG00000117118_ENST00000375499|hu_hu|FALSE|FALSE (ssRNA)
RNA: GGGAGUUCUACAGUCCGACGAUCAGUCUGCAUAUGAGGUUUGUCUCCAGCCUUGUCUGGGUCCCAUCGAUAGAUGGCAAAUUUCUUGAUACGGGGAGCUGUGGCUGCAGCUGUCUGGGCUCCUCGGGAGGCCUGCAGGCAGGCCAACAGAGGAUUGAGCAUCA
B3: chr13:51244491:51244492:+_ENSMUSG00000021395_ENSMUST00000095797|mus_mus|FALSE|FALSE (ssRNA)
RNA: GGGAGUUCUACAGUCCGACGAUCCAAAGUUUGUGAUGACAUCUAGGAUGUUUUCACCAAAUCGUAGACGUAAAUAUGGAAAUCGUCAUCAAACUUGAUGAAAUAGACAGAGGGCUUGGCCUCUACUUGGUGGAUGACCAUGCCCAACAGAGGAUUGAGCAUCA
B4: chr17:65740002:65740003:+_ENSG00000130935_ENST00000581375|hu_hu|hu_hu_hu_mus_False|18_78 (ssRNA)
RNA: GGGAGUUCUACAGUCCGACGAUCAACAAAUCUUUCUUCCCUGGACGAACAGGAAGACAUAAAAGAGAAAAAAUAUAUAUCCAUCAAGUUAGGUGUGGUGGCCACACCUUUACUCCCCACUUCAAUUGAGGUGGAUCUCUGAGUCAACAGAGGAUUGAGCAUCA
B5: chr2:47387770:47387771:-_ENSG00000143933_ENST00000272298|hu_mus|hu_hu_hu_mus_True|1_28 (ssRNA)
RNA: GGGAGUUCUACAGUCCGACGAUCAAGGUUUAAGGACAAUGACAGUAAGAUAAGGGAAGAAAACAUGGAGGAAUGAAGUCCUAAUUACUAUACAUGCAUAUUUUUUGGACAGUAGGGGGGGGAACCUUUUACAGAUAUUACAAACAACAGAGGAUUGAGCAUCA
B6: chr5:40767622:40767623:-_ENSG00000132356_ENST00000397128|hu_mus|hu_hu_hu_mus_False|58_108 (ssRNA)
RNA: GGGAGUUCUACAGUCCGACGAUCAUCUUUGAUUGUGGCCCUCUUCAUGGGAUCCACCUGCAGCAUAUGUUUCAAAAGGCUAAUCACUGAAGGGUUUAAGUACUGAGGGGUAUAAAAGAUCCCAUCACAUAUCUUCUUAAAAAGCAACAGAGGAUUGAGCAUCA
B7: chr1:163122374:163122375:-_ENSG00000143248_ENST00000313961|hu_mus|FALSE|FALSE (ssRNA)
RNA: GGGAGUUCUACAGUCCGACGAUCAGUGAAGUGGUCAAUGUUCACCUCUUUAGGGGCCUCUGUCUGGAUGAAUUCUUCAUAAAUUUGCUUUGCCUUCUCCGCCAUUUUGAUGGGGGACUUGAUCUUCUUGUAAUUCUCACAGGCCAACAGAGGAUUGAGCAUCA
B8: chr16:67133199:67133200:+_ENSG00000067955_ENST00000412916|hu_hu|FALSE|FALSE (ssRNA)
RNA: GGGAGUUCUACAGUCCGACGAUCAUGCUACUAAGUUUUUAGCCUGUAAAUAAUGCAAACAACAUCAGCAGUUUUAAAAUGCUAUAGACUAUAAAAACACAAAAGGAAAUGGGGCAAACAAAACAAAAAAUAAGAAUGCUCAUCCAACAGAGGAUUGAGCAUCA
B9: chr10:106027121:106027122:+_ENSG00000148834_ENST00000369713|hu_hu|FALSE|FALSE (ssRNA)
RNA: GGGAGUUCUACAGUCCGACGAUCGGCCUCAGGGCUGUUCUGUAAGUAGAGCUCUAGGAAACCUUGCCAGUCUUUCUCACUAGUAAGCAGGGCUGAGACUGUGGGAUCUUCCUUCAUGGCUGCCAUCCACAGUUUCAGUUUUGGCAACAGAGGAUUGAGCAUCA
B10: chr10:41618152:41618153:+_ENSMUSG00000038332_ENSMUST00000041438|mus_mus|FALSE|FALSE (ssRNA)
RNA: GGGAGUUCUACAGUCCGACGAUCUUGCAUCUCAUCCACACUGUGAUUGCCAUUUGUAAUGUCACAGAUGCAGUAGUUACUAACAGAAGGCGGUCUGAAGGUGUGGCCACCAUCGCAAUGAAUCUCUGGACUAAUUCCACAGCCCAACAGAGGAUUGAGCAUCA
B11: chr9:110092072:110092073:+_ENSG00000119318_ENST00000416373|hu_mus|FALSE|FALSE (ssRNA)
RNA: GGGAGUUCUACAGUCCGACGAUCAACUGUAUGUAUCCCUGCCCUAUAUCCUAGCUCCCCACCCCCACCCCCACCAACCUACUACCGUAUACCAAAUAUUGUGGAUAUGAGCCCAAGUCACCCCAGACAAUCCAGUGAACAAGGCAACAGAGGAUUGAGCAUCA
B12: chr2:47387770:47387771:-_ENSG00000143933_ENST00000272298|hu_mus|hu_hu_hu_mus_True|8_18 (ssRNA)
RNA: GGGAGUUCUACAGUCCGACGAUCAAGGUUUAAGGACAAUGACAGUAAGAUAAGGGAAGAAAACAUGGAGGAAUGAAGUCCUAAUUACUAUACAUGCAUAUUUUUUGACAGUAGGGGAGAAACCUUUUACAGAUAAGAGUUACACAACAGAGGAUUGAGCAUCA
B13: chr1:244855233:244855234:+_ENSG00000121644_ENST00000302550|hu_mus|hu_hu_hu_mus_True|38_38 (ssRNA)
RNA: GGGAGUUCUACAGUCCGACGAUCCAUCAGAUGGUAGGCGUUGCCCUUAUACUCUUUCCCCAGUUCUUCUACAAUUUUCUCUAUAUCAUCUUCUAGAAAGUCCGUGCUUCCUAGAACAACAGCUUCUUUAAAUUUAAAUGUUUCCAACAGAGGAUUGAGCAUCA
B14: 30729433_30729653_658_CDS_ENSG00000101337_ENST00000398022|human|control|control (ssRNA)
RNA: GGGAGUUCUACAGUCCGACGAUCCACAUCUUUUUCCUUCUUCUUGUCAUCGCUGUCUCGGUUGGAGUAGAGCUCCAGCCGGGUGGCCACAGGCAGGUUGUCAGCAAUGAGGUGGACGUAGUAGUCUUCUGUGAUCCGCUCGGCCAACAGAGGAUUGAGCAUCA

target: T1, UNK ZnF1-3 (human, UniProt Q9C0B0 31-174); assay: nsRBNS (natural sequence RNA bind-n-seq); RBNS binding buffer (assumed for nsRBNS): 25 mM Tris pH 7.5, 150 mM KCl, 3 mM MgCl2, 0.01% Triton X-100, 500 ug/ml BSA, 20 U/ml SUPERase-In, 4 C; UNK is unkempt and MSI1 is Musashi-1; names of the RNAs are library labels; protein concentration not given here; high values mean tight binding
T1 sequence: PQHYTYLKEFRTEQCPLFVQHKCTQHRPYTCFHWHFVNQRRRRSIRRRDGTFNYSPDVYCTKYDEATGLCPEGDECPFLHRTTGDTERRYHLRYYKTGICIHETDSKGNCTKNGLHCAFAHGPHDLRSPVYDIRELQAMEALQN

Row | Binder | binding signal
1 | B1 | 0.727 enrichment R
2 | B2 | 1.92 enrichment R
3 | B3 | 0.622 enrichment R
4 | B4 | 0.753 enrichment R
5 | B5 | 2.35 enrichment R
6 | B6 | 1.07 enrichment R
7 | B7 | 0.927 enrichment R
8 | B8 | 1.78 enrichment R
9 | B9 | 0.581 enrichment R
10 | B10 | 0.845 enrichment R
11 | B11 | 1.93 enrichment R
12 | B12 | 1.83 enrichment R
13 | B13 | 1.23 enrichment R
14 | B14 | 0.697 enrichment R
